Data reported in PubChem BioAssay AID493170 (National Center for Advancing Translational Sciences (NCATS), 2011).
Inconclusive means that the source gave no clear call. Such entries were picked first, then a sample of the others. No potency is given beside an inconclusive call; the fits are too rough. Calls of active or inactive are those of the source. Calls follow the shape of the dose curve; as a rule, active = well fitted inhibition curve with a large enough effect; inconclusive = small, poorly fitted or top-dose-only effect, or effect the other way; inactive = flat fitted curve, though single readings scatter.

Molecular target: Ubiquitin carboxyl-terminal hydrolase 2 (Homo sapiens) (UniProt O75604)
UniProt O75604, sequence (O75604 whole entry, looked up): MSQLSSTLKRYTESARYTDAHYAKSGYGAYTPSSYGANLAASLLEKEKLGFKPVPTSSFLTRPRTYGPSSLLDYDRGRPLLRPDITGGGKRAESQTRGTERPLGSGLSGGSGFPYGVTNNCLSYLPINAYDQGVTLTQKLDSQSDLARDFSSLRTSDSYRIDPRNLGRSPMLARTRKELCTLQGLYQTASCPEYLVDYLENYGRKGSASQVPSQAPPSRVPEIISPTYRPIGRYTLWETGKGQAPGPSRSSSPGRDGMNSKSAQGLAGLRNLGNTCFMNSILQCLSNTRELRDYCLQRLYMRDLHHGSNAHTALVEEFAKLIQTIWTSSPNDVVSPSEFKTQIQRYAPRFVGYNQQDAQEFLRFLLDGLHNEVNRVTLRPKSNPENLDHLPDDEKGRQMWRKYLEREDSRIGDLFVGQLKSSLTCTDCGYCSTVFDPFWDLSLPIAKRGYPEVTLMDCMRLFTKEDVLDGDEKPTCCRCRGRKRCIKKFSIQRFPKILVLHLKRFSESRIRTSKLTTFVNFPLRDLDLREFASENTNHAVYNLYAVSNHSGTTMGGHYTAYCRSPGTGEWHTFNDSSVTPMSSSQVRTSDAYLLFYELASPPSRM
Test: Ub-rhodamine 110 based assay for inhibitors Ubiquitin-specific Protease USP2a; also: nearly all actives have a fitted effect of over 50% in size
Settings: USP2a Ub-rhodamine110 cleavage, fluorescence; series mostly up to 38.3 µM
Text: NIH Molecular Libraries Probe Centers Network [MLPCN] NIH Chemical Genomics Center [NCGC] MLPCN Grant: XO1-MH079852-01 PI Name: Nicholson, Ben. Progenra Inc, Malvern, PA NCGC Assay Overview: Homeostasis of cellular proteins is maintained through a combination of synthesis and degradation. The pathway that accounts for the majority of protein degradation is the ubiquitin-proteasomal pathway. Ubiquitin (Ub) is highly conserved in all cells and the generation of a multi-Ub chain typically targets proteins for degradation by the proteasome. However, ubiquitination is highly reversible and dynamic. Deubiquitination, the reverse process, is catalyzed through the action of enzymes referred to as isopeptidases or deubiquitinating enzymes (DUBs). This group of enzymes is collectively responsible for maintaining adequate pools of free ubiquitin and regulating the ubiquitination status of cellular proteins. The class of DUBs referred to as the ubiquitin-specific proteases (USP) family functions endoproteolytically to cleave Ub chains from a wide range of protein substrates. USP2a deubiquitinates fatty acid synthase (FASN) which has recently been identified as an emerging oncology target. To identify inhibitors of USP2a a cell-free assay was employed. This assay measures cleavage of a profluorescent substrate (Ub-Rhodamine 110; Boston Biochem Cat#: U-555) by USP2a. The assay gives a fluorescent read-out at excitation/emission wavelengths of 485/531. The USP2a enzyme was provided by Progenra, Inc. licensed for sale by LifeSensors, Inc.
NCGC Assay Protocol: The assay buffer, prepared fresh at the day of the assay, contains 20mM Tris-HCl pH 8.0, 2mM CaCl2, 2mM beta-Mercaptoethanol, 0.05% CHAPS. 3uL of 10 nM (5 nM final) USP2a, was dispensed into a medium-binding black solid Kalypsys 1,536 well plate using the Kalypsys dispenser. The assay plate was then pinned with 23nL compounds in DMSO with a Kalypsys pintool in columns 5-48 (0.3% final DMSO concentration). The negative control was buffer/DMSO only in column 3. The assay plate is incubated at RT for 30min. Subsequently, 3uL of 300 nM Ub-Rhod110 (150 nM final) was dispensed into the plate using a Kalypsys dispenser. Plates were read after every minute for 7 min on a ViewLux (Perkin Elmer) plate reader using the following wavelengths: Ex 485nm /Em 531nm. Data were normalized to the AC100 inhibition (buffer alone). Concentration-response curves were fitted to the normalized data and the concentration-response curves were then classified based on curve quality (r2), response magnitude and degree of measured activity. The time zero reading was used to flag fluorescence artifacts.
Potency is read from the fitted curve at half-maximal effect; tags tell the direction and shape of the fitted curve.

Compound	Potency
Cc1ccc(CSC2=Nc3ccccc3C3=NC(CC(=O)NCc4ccco4)C(=O)N23)cc1 (stereo not given)	active: 8.91 µM
COc1ccc(CCNC(=O)COC(=O)CNS(=O)(=O)c2ccc(SC)c([N+](=O)[O-])c2)cc1	inconclusive [inhibitor, single point]
O=C(Nc1ccc(N2CCCC2)c(Cl)c1)c1ccc(Br)o1	inconclusive [inhibitor, partial curve, poor fit]
Cc1nc2ccccc2c2oc(C(=O)NCCN3CCN(C)CC3)cc12	inactive
O=C(N/N=C/c1ccc(-c2ccc(S(=O)(=O)Nc3ncccn3)cc2)o1)c1cc2ccccc2cc1O	active: 4.47 µM
O=C1CCCC2=C1C(c1ccco1)Nc1ccc3ccccc3c12 (stereo not given)	inconclusive [inhibitor, partial curve, poor fit]
C[C@@H]1CC[C@]2(C(=O)O)CC[C@]3(C)C(=CCC4[C@]56CC[C@@](O)(OC5)C(C)(C)C6CC[C@]43C)C2[C@H]1C (stereo not given in full)	inconclusive [inhibitor, single point]
Cc1ccc(S(=O)(=O)Nc2ccccc2C(=O)Nc2nc(-c3ccc(F)cc3)cs2)cc1	active: 7.08 µM
O=C(N/N=C/c1ccc(F)cc1)c1cc(-c2ccco2)nc2ccccc12	active: 2 µM
Cc1ccc(C(=O)Oc2coc(CSc3nnc(NC(=O)c4cccs4)s3)cc2=O)cc1	active: 11.2 µM
COc1ccc2nc(C)cc(SCC(=O)N/N=C/c3c(OC)ccc4ccccc34)c2c1	inconclusive [inhibitor, single point]
O/C=c1\ccc2cccc3nc(C(F)(F)F)nc1c23	inconclusive [activator, partial curve, poor fit]
COc1cc2c(ccc3cc(OC)c(OC)c(O)c32)cc1O	inconclusive [inhibitor, full curve, poor fit]
Cc1ccc(C2(C)NC(=O)N(CC(=O)c3ccc(Cl)s3)C2=O)cc1 (stereo not given)	active: 11.2 µM
Cc1ccc(/C(O)=C/C(=O)C(=O)NNC(=O)C(O)(c2ccccc2)c2ccccc2)cc1	inconclusive [inhibitor, partial curve, poor fit]
C#CCOCCOCCOCCNc1nc(N2CCN(C(=O)CCCCCCCCCCNC(=O)[C@@H](CCC(=O)O)n3cc(CCCCCN)nn3)CC2)nc(N2CCN(C(=O)CCCCCCCCCCNC(=O)[C@H](CCCCN)n3cc(C[C@@H](C)CC)nn3)CC2)n1	inactive
C=CC[C@@H](CC(=O)N(CCO)Cc1ccccc1)C(=O)NCCOC(=O)[C@H](CC=C)CC(=O)OC(C)(C)C	inactive
CCOc1cccc(NC(=O)/C(C#N)=C\c2cn(CC(=O)O)c3ccccc23)c1	inconclusive [activator, full curve, poor fit]
Cc1cccc(OCC(=O)N/N=C/C=C/c2ccco2)c1	inconclusive [inhibitor, partial curve, poor fit]
O=C(Nc1nnc(-c2cccs2)o1)c1cccc(Oc2ccccc2)c1	inconclusive [inhibitor, single point]

Compound	Potency
O=C(c1cc(-c2ccco2)on1)N1CCc2ccccc2C1	active: 10 µM
CCNC(=S)N/N=C/c1cn(Cc2ccc(F)cc2)c2ccccc12	inconclusive [activator, full curve, poor fit]
CCOC(=O)COc1c(OC)cc(Cl)cc1C1Nc2ccccc2C(=O)N1c1ccccc1 (stereo not given)	inconclusive [inhibitor, partial curve, poor fit]
CC(C)n1c(/C=C/[C@H](O)C[C@H](O)CC(=O)O)c(-c2ccc(F)cc2)c2ccccc21	inactive
Cc1ccc(S(=O)(=O)Cc2ccc(C(=O)N3CCN(c4ccccn4)CC3)o2)cc1	inconclusive [inhibitor, partial curve, poor fit]
CS(=O)(=O)c1ccc(C(=O)Nc2nc(-c3ccco3)c(-c3ccco3)s2)cc1	inconclusive [inhibitor, partial curve, poor fit]
O=C(c1ccccc1)c1ccc2nc(-c3ccco3)c(-c3ccco3)nc2c1	inconclusive [inhibitor, partial curve, poor fit]
COc1ccc(C(=O)CSc2nnc(-c3ccco3)c(-c3ccco3)n2)cc1	inconclusive [inhibitor, partial curve, poor fit]
COc1ccc(-c2nnc(Nc3ccc(S(=O)(=O)Nc4nccs4)cc3)c3ccccc23)cc1	inconclusive [inhibitor, partial curve, poor fit]
CCOc1ccccc1N1C(=O)CC(Nc2ccc(N3CCOCC3)cc2)C1=O (stereo not given)	inconclusive [inhibitor, partial curve, poor fit]
CCOC(=O)c1[nH]c2ccc(OC)cc2c1NC(=O)CCN1CCCC(C)C1 (stereo not given)	inactive
O=C(CCCN1C(=O)/C(=C\c2ccco2)SC1=S)Nc1ccc(O)cc1C(=O)O	inconclusive [inhibitor, partial curve, poor fit]
CCCCCCCCCCOC(=O)Cn1c(COc2ccc(Cl)cc2)[n+](C)c2ccccc21	inconclusive [inhibitor, single point]
CSCCC(NC(=O)c1cc(C(C)(C)C)oc1C)C(=O)O (stereo not given)	inactive
CCCCCCCCCCC[N+](C)(C)CC/C=C1/c2ccccc2Sc2ccc(Cl)cc21	inconclusive [inhibitor, single point]
CN(C)C=Nc1ncc2c3ccccc3n(CCN(C)C)c2c1C#N	inactive
COC(=O)c1ccccc1NC(=O)CSc1nc(O)cc(=O)n1C1CCCC1	inconclusive [inhibitor, single point]
O=C1COc2ccc(C(=O)COC(=O)/C=C/c3ccc(Br)o3)cc2N1	active: 2.24 µM
NS(=O)(=O)c1ccc(NC(=O)/C=C/c2cn(-c3ccccc3)nc2-c2cccc(Cl)c2)cc1	active: 8.91 µM
Cc1cccc(-c2nnc3n2N=C(c2ccc(Br)cc2)CS3)c1	inconclusive [inhibitor, partial curve, poor fit]
